Data: PubChem BioAssay (Tox21)
“And” between values parts separate entries of the source, which are not always exact repeats. Equal entries are not always repeated. Inconclusive means that the source gave no clear call. Such entries were picked first, then a sample of the others. For part of these data: A potency beside an inconclusive call is a rough fit, not a confirmed value. The source made the active and inactive calls. Unless noted, the call rests on the fitted dose curve; in most records, active means well fitted curve in the direction sought with a large enough effect in the repeat runs; inconclusive means weak or mixed curves; inactive means no such curve, though single readings can be large; an effect the other way counts as inactive or inconclusive.

Legend:
[1] = qHTS assay for small molecule agonists of the antioxidant response element (ARE) signaling pathway (AID 743202; active means well fitted activation curve with a large enough effect in the signal ratio in the repeat runs, not every such curve was filed as active; inconclusive means weak or mixed curves, or effect the other way; inactive means no such curve, though single readings can be large or run the other way; the % refers to the signal ratio; further: potency means the concentration at half of the fitted maximal effect; on activation: on the % scale 0 is the no-effect control and ±100 the full control effect); conditions: HepG2 ARE-bla reporter, beta-lactamase FRET, 16 h
How it was run: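 An ARE-responsive beta-lactamase gene stably integrated in HepG2 cells serves as reporter. After 5 h plating and 16 h compound incubation at 37 C, fluorescence of the B/G FRET substrate was measured.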

[2] = qHTS assay for small molecule agonists of the antioxidant response element (ARE) signaling pathway - cell viability counter screen (AID 743203; calls by dose curve; further: potency means the concentration at half of the fitted maximal effect; nearly all actives have a fitted effect of over 55% in size); conditions: ARE-bla HepG2 viability, CellTiter-Glo luminescence, 16 h; viability change, negative = cytotoxic: at 73.3 µM (top of the series)
How it was run: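 HepG2 cells carrying ARE-driven beta-lactamase; 2,000 cells/well; 5 hrs plating; compound pinned from DMSO; 16 hrs 37C/5% CO2; CellTiter-Glo added; 30 min RT; luminescence.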

[3] = qHTS assay for small molecule activators of the heat shock response signaling pathway (AID 743210; active means well fitted activation curve with a large enough effect in the signal ratio in the repeat runs, with a control signal flat, not every such curve was filed as active; inconclusive means weak or mixed curves; the % refers to the signal ratio; further: potency means the concentration at half of the fitted maximal effect); conditions: HeLa HSE-bla reporter, beta-lactamase ratio, 5 h; activation: at 62.6 µM (top of the series) unless noted
How it was run: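 In HSE-bla HeLa cells, 5 h compound incubation (37 C) precedes addition of LiveBLAzer B/G substrate; after 2.5 h at room temperature, fluorescence intensity indicates reporter induction.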

[4] = qHTS assay to identify small molecule agonists of the peroxisome proliferator-activated receptor delta (PPARd) signaling pathway - cell viability counter screen (AID 743211); conditions: PPARd-bla HEK293H viability, CellTiter-Glo luminescence, 17 h; activity change, negative = cytotoxicity: at 62.6 µM (top of the series); further: nearly all actives have a fitted effect of over 55% in size; further: potency means the concentration at half of the fitted maximal effect
How it was run: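 Tox21 library compounds, delivered in DMSO, were incubated 17 h with PPARd-bla HEK293H cells; cytotoxicity was taken from CellTiter-Glo luminescence read 30 min after reagent addition.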

[5] = qHTS assay to identify small molecule antagonists of the peroxisome proliferator-activated receptor delta (PPARd) signaling pathway - cell viability counter screen (AID 743213); conditions: PPARd-bla HEK293H viability, CellTiter-Glo luminescence, 17 h; viability change, negative = cytotoxic: at 62 µM (top of the series) unless noted; further: nearly all actives have a fitted effect of over 50% in size; further: potency means the concentration at half of the fitted maximal effect
How it was run: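 Viability counter-screen, qHTS format: PPARd-bla HEK293H, L165041 300 nM final, 17 h compound exposure at 37 C, CellTiter-Glo luminescence after 30 min RT.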

[6] = target: Peroxisome proliferator-activated receptor delta (Homo sapiens) (UniProt Q03181); test: qHTS assay to identify small molecule antagonists of the peroxisome proliferator-activated receptor delta (PPARd) signaling pathway (AID 743215; active means well fitted inhibition curve with a large enough effect in the signal ratio in the repeat runs, not every such curve was filed as active; inconclusive means weak or mixed curves, or effect the other way; inactive means no such curve, though single readings can be large or run the other way; the % refers to the signal ratio;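 further: cells stimulated with agonist L165041 at 300 nM final during compound exposure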; further: potency means the concentration at half of the fitted maximal effect); conditions: HEK293H PPARd-UAS-bla, beta-lactamase FRET ratio, antagonist, 17 h; ratio activity, negative = inhibition: at 62 µM (top of the series) unless noted
UniProt Q03181, sequence (Q03181 whole entry, looked up): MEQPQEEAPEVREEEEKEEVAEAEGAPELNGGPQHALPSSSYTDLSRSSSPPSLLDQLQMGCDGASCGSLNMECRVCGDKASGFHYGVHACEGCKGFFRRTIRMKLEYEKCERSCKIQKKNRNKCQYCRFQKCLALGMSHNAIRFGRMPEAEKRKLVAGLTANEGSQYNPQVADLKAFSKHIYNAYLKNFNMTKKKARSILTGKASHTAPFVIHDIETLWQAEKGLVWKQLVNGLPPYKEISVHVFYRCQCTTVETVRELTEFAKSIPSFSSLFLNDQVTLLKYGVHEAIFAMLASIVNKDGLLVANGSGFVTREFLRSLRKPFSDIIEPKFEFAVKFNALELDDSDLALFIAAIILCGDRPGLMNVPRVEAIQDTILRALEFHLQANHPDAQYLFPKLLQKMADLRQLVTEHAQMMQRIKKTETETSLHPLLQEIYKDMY
How it was run: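 Read-out is beta-lactamase FRET fluorescence, measured 2 h after substrate addition at room temperature. Beforehand, UAS-bla HEK293H cells carrying the PPARd reporter were exposed to compounds with L165041 at 300 nM final for 17 h at 37 C.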

[7] = qHTS assay to identify small molecule agonists of the farnesoid-X-receptor (FXR) signaling pathway - cell viability counter screen (AID 743218); conditions: FXR-bla HEK293T viability, CellTiter-Glo luminescence, 16 h; viability change, negative = cytotoxic: at 62.6 µM (top of the series) unless noted; further: nearly all actives have a fitted effect of over 45% in size; further: potency means the concentration at half of the fitted maximal effect
How it was run: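 HEK 293T FXR-bla cells; 5 h pre-incubation, 16 h compound exposure at 37 C; LiveBLAzer substrate 2 h RT, then CellTiter-Glo 30 min RT, luminescence.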

[8] = target: Bile acid receptor (Homo sapiens) (UniProt Q96RI1); test: qHTS assay to identify small molecule agonists of the farnesoid-X-receptor (FXR) signaling pathway (AID 743220; active means well fitted activation curve with a large enough effect in the signal ratio in the repeat runs, not every such curve was filed as active; inconclusive means weak or mixed curves, or effect the other way; the % refers to the signal ratio; further: on the % scale 0 is the no-effect control and ±100 the full control effect); conditions: HEK293T FXR-UAS-bla, beta-lactamase FRET ratio, 16 h; activation: at 62.6 µM (top of the series)
UniProt Q96RI1, sequence (Q96RI1 whole entry, looked up): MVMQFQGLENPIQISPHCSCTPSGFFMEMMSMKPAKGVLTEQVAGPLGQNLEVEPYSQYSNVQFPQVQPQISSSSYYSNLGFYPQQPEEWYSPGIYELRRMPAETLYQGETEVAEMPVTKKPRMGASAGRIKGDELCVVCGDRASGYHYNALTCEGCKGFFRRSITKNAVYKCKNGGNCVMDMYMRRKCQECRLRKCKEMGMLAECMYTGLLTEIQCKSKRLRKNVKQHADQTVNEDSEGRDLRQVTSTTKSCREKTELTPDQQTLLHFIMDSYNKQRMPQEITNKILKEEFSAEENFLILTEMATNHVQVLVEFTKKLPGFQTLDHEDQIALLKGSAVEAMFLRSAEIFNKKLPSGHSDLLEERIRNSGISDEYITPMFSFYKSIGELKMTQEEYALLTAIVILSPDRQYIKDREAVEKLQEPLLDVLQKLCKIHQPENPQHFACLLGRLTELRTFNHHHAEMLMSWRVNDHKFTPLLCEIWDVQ
How it was run: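 Beta-lactamase reporter under UAS control in GeneBLAzer FXR HEK 293T cells (5000/well) measured with LiveBLAzer FRET substrate after 2 h at room temperature. Compound exposure lasted 16 h at 37C.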

[9] = qHTS assay to identify small molecule antagonists of the farnesoid-X-receptor (FXR) signaling pathway - cell viability counter screen (AID 743221; active means well fitted cell-killing curve with a large enough effect in the repeat runs, not every such curve was filed as active; inconclusive means weak or mixed curves, or effect the other way; inactive means no such curve, though single readings can be large or run the other way; further: nearly all actives have a fitted effect of over 50% in size; further: potency means the concentration at half of the fitted maximal effect); conditions: FXR-bla HEK293T viability, CellTiter-Glo luminescence, 16 h; activity change, negative = cytotoxicity: at 62.6 µM (top of the series) unless noted
How it was run: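 Cytotoxicity is taken from ATP luminescence (CellTiter-Glo, 30 min, room temperature) in FXR-bla HEK 293T cells previously incubated 16 h at 37 C with compound and chenodeoxycholic acid at 50 uM final.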

[10] = target: Vitamin D3 receptor (Homo sapiens) (UniProt P11473); test: qHTS assay to identify small molecule antagonists of the vitamin D receptor (VDR) signaling pathway (AID 743223; active means well fitted inhibition curve with a large enough effect in the signal ratio in the repeat runs, not every such curve was filed as active; inconclusive means weak or mixed curves, or effect the other way; inactive means no such curve, though single readings can be large or run the other way; the % refers to the signal ratio; further: on the % scale 0 is the no-effect control and ±100 the full control effect); conditions: VDR-UAS-bla HEK293T, beta-lactamase FRET ratio, 16 h; activity change, negative = inhibition: at 61 µM (top of the series) unless noted
UniProt P11473, sequence (P11473 whole entry, looked up): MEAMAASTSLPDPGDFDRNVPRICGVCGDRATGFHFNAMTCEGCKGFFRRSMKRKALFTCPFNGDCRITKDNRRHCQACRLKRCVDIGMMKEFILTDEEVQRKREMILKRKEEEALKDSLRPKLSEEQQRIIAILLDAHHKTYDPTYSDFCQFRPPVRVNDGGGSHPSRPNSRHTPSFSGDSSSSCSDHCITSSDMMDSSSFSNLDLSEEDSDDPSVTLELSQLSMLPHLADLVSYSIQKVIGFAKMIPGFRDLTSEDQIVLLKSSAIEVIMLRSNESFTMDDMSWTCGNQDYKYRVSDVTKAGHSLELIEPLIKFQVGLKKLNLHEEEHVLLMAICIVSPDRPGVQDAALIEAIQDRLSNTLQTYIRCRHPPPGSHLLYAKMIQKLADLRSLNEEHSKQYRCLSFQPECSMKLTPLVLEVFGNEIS
How it was run: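 Quantitative HTS in VDR-bla reporter cells stimulated with 1alpha,25-dihydroxyvitamin D3, 3 nM final. Compound exposure 16 h, 37C, 5% CO2. Read-out: beta-lactamase FRET substrate fluorescence, 2 h RT.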

[11] = qHTS assay to identify small molecule agonists of the vitamin D receptor (VDR) signaling pathway - cell viability counter screen (AID 743224); conditions: VDR-bla HEK293T viability, CellTiter-Glo luminescence, 16 h; activity change, negative = cytotoxicity: at 62.6 µM (top of the series); further: potency means the concentration at half of the fitted maximal effect; nearly all actives have a fitted effect of over 50% in size
How it was run: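 Luminescence from CellTiter-Glo, read after 30 min at room temperature, reports viability of VDR-bla cells treated with compounds for 16 h at 37C in the wells used for the beta-lactamase FRET read.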

[12] = qHTS assay to identify small molecule antagonists of the vitamin D receptor (VDR) signaling pathway - cell viability counter screen (AID 743225); conditions: VDR-bla HEK293T viability, CellTiter-Glo luminescence, 16 h; viability change, negative = cytotoxic: at 61 µM (top of the series) unless noted; further: nearly all actives have a fitted effect of over 50% in size; further: potency means the concentration at half of the fitted maximal effect
How it was run: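 Same-well multiplex: following 16 h treatment of HEK 293T cells carrying a UAS-driven beta-lactamase reporter with compound and agonist (3 nM final), and a 2 h FRET substrate step, CellTiter-Glo was added and luminescence read after 30 min.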

[13] = target: Nuclear receptor ROR-gamma (Homo sapiens) (UniProt P51449); test: qHTS assay to identify small molecule antagonists of the retinoid-related orphan receptor gamma (ROR-gamma) signaling pathway (AID 1159521; further: nearly all actives have a fitted effect of over 50% in size; further: potency means the concentration at half of the fitted maximal effect)
How it was run: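 Inducible-expression reporter assay: doxycycline (1 uM final) switched on RORγ in CHO cells bearing a ROR response element-luciferase construct, with test compounds present from 2 h beforehand. Decreased luminescence after 16 h defined antagonist activity.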

[14] = qHTS assay to identify small molecule agonists of the AP-1 signaling pathway (AID 1159526; calls by dose curve; further: potency means the concentration at half of the fitted maximal effect); conditions: ME-180 (cervical carcinoma) AP-1-bla reporter, beta-lactamase FRET ratio, 5 h; activation: at 76.8 µM (top of the series) unless noted
[15] = target: Peroxisome proliferator-activated receptor delta (Homo sapiens) (UniProt Q03181); test: qHTS assay to identify small molecule agonists of the peroxisome proliferator-activated receptor delta (PPARd) signaling pathway (AID 743212; calls by dose curve; further: on the % scale 0 is the no-effect control and ±100 the full control effect); conditions: HEK293H PPARd-UAS-bla, beta-lactamase FRET ratio, 17 h; activation: at 62.6 µM (top of the series) unless noted
How it was run: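 HEK293H UAS-bla reporter cells, human PPARd system; compounds delivered in DMSO after 5 h plating, then at 37 C. Beta-lactamase FRET read, 2 h RT substrate step.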

[16] = target: Bile acid receptor (Homo sapiens) (UniProt Q96RI1); test: qHTS assay to identify small molecule antagonists of the farnesoid-X-receptor (FXR) signaling pathway (AID 743217; active means well fitted inhibition curve with a large enough effect in the signal ratio in the repeat runs, not every such curve was filed as active; inconclusive means weak or mixed curves, or effect the other way; inactive means no such curve, though single readings can be large or run the other way; the % refers to the signal ratio; further: potency means the concentration at half of the fitted maximal effect); conditions: HEK293T FXR-UAS-bla, beta-lactamase ratio, CDCA-stimulated, 16 h; activity change, negative = inhibition: at 62.6 µM (top of the series) unless noted
How it was run: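 HEK 293T FXR-UAS-bla, 5000 cells/well; compound + CDCA 50 uM final; 16 h, 37 °C; B/G FRET substrate 2 h RT; fluorescence.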

[17] = activation: at 73.3 µM (top of the series) unless noted
Tags describe the fitted curve by direction and shape or compound fluorescence and quenching.

CN(C)CCCN1c2ccccc2Sc2ccccc21
inconclusive: activation [1, 17] -12% | Potency [2] 33.5 µM [cytotoxic, single point] | Potency [4] 29.8 µM [cytotoxic, single point] | Potency [5] 9.44 µM [cytotoxic, full curve, poor fit] | Potency [6] 9.44 µM [inhibitor, partial curve, poor fit] | Potency [9] 21.1 µM [falling, partial curve, poor fit] | activity change, negative = inhibition [10] -27.1% | Potency [11] 21.1 µM [cytotoxic, partial curve] | Potency [12] 2.13 µM [cytotoxic, partial curve, poor fit] | Potency [13] 1.06 µM [inhibitor, single point] | Potency [14] 6.01 µM [full curve]
inactive: Potency [3] | Potency [8]
active: Potency [7] 13.3 µM

CCCNCC(O)COc1ccccc1C(=O)CCc1ccccc1 (centres undefined)
inconclusive: Potency [1, 17] 10.6 µM [falling, partial curve] | Potency [4] 11.9 µM [cytotoxic, partial curve] | Potency [5] 0.266 µM [cytotoxic, full curve, poor fit] | Potency [7] 37.6 µM [cytotoxic, partial curve, poor fit] | Potency [11] 23.7 µM [cytotoxic, partial curve] | Potency [13] 29.8 µM [inhibitor] | Potency [14] 26.8 µM

CC(=O)SCc1ccco1
inconclusive: activation [1, 17] 20% | Potency [4] 43.6 µM [rising, partial curve, poor fit] | activity change, negative = inhibition [16] 7.41% | activation [14] 16.4%
inactive: Potency [15] | Potency [5] | Potency [13]

Cc1ccc(S(=O)(=O)NCl)cc1
inactive: activation ([1]; at 94.8 µM (top of the series)) -2.11% | Potency [15] | Potency [14]
inconclusive: activation [1, 17] -3.17% | viability change, negative = cytotoxic [5] 1.85% [cytotoxic] | Potency [6] 2.98 µM [rising, partial curve, poor fit] | Potency [13] 0.289 µM [inhibitor, full curve, poor fit]

Cn1c(=O)c2c(ncn2CC(=O)O)n(C)c1=O
inactive: Potency [1, 17] | Potency [4] | Potency [14]
inconclusive: Potency [13] 0.298 µM [inhibitor, single point]

O=C1c2ccccc2CCc2ccccc21
inactive: Potency [13]
active: Potency [14] 35.4 µM and 23.9 µM

c1ccc(-c2ccccc2-c2ccccc2)cc1
inconclusive: Potency [13] 68.6 µM [inhibitor, single point] | Potency [14] 43.6 µM

CCc1c2c(nc3ccc(OC(=O)N4CCC(N5CCCCC5)CC4)cc13)-c1cc3c(c(=O)n1C2)COC(=O)[C@]3(O)CC
inconclusive: activation [1, 17] -28.3% | viability change, negative = cytotoxic [5] -31.7% [cytotoxic] | Potency [16] 11.9 µM [inhibitor, partial curve] | Potency [13] 23.7 µM [inhibitor, partial curve, poor fit] | Potency [14] 26.8 µM [activator]

C=CC(=O)OCCOc1ccccc1
inconclusive: Potency [3] 36 µM | Potency [7] 48.9 µM [cytotoxic, partial curve, poor fit] | Potency [13] 68.5 µM [inhibitor, single point] | Potency [14] 21.9 µM [falling, partial curve]

CCNS(=O)(=O)c1ccc(C)cc1
inconclusive: activation [1, 17] 8.48% [at 94.8 µM]
inactive: Potency [9] | Potency [13] | Potency [14]

C#Cc1cccc(Nc2ncnc3cc(OCCOC)c(OCCOC)cc23)c1
inconclusive: Potency [1, 17] 1.88 µM [rising, full curve] | ratio activity, negative = inhibition [6] 10.5% | Potency [13] 4.73 µM [inhibitor, partial curve] | activation [14] -10.7% [at 35.3 µM]
inactive: Potency [16] | Potency [7] | Potency [12]

CCCCCC/C(C=O)=C\c1ccccc1
inactive: Potency [13]
inconclusive: activation [1, 17] -0.622% [at 94.8 µM] | Potency [5] 0.197 µM [cytotoxic, full curve, poor fit] | Potency [7] 7 µM [rising, full curve, poor fit] | Potency [12] 0.785 µM [cytotoxic, single point] | Potency [14] 62.3 µM [falling, partial curve, poor fit]
